This passage reports z-score results from PubChem BioAssay AID488969 (Vanderbilt High Throughput Screening Facility, 2010).

The structures appear in SMILES notation. Over roughly 110,000 compounds, “z-score” has its median near -0.1; the highest 2% begin near 2. The list shows a part of the results.

This test addresses Metabotropic glutamate receptor 8 (Rattus norvegicus) (UniProt P70579). Description: mGluR8 Gi/Go-coupled signaling modulation – cell-based, rat, thallium flux, HTS, primary screen (AID 488969). Conditions: HEK293 rat mGluR8, GIRK (G protein-gated inwardly rectifying potassium channel) thallium flux, FluoZin2; at 10 µM; stronger effect = higher value; submaximal glutamate (EC20) added with thallium.
Chain of UniProt P70579 (P70579 whole entry, looked up): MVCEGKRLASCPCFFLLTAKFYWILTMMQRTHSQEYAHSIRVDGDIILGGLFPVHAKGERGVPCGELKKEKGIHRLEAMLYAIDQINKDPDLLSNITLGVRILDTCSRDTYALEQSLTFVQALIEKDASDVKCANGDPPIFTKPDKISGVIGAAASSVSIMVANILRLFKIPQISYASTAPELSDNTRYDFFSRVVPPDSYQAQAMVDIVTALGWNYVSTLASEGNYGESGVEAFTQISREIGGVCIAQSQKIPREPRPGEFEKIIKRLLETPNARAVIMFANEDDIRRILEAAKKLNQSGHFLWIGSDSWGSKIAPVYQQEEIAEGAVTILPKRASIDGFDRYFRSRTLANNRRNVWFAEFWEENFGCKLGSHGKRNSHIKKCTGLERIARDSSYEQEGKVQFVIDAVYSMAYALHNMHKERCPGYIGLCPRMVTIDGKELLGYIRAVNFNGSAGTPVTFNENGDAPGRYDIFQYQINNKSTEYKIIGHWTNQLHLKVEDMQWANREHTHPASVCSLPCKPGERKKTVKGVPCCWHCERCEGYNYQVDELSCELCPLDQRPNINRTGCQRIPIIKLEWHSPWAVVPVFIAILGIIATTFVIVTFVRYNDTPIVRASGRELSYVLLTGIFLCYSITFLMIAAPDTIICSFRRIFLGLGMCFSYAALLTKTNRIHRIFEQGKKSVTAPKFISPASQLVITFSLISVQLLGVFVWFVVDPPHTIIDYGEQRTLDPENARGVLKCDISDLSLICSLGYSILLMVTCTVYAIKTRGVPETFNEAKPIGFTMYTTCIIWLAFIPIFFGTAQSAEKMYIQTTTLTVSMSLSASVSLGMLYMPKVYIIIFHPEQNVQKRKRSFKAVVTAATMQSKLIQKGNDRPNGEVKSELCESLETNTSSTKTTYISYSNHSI
The compound `CCCOC(=O)c1ccc(-c2c(C)noc2-c2ccc(OC)cc2O)o1` had a z-score of -2.4. As to `COc1cc(NC(=O)COC(C)=O)c(C)cc1[N+](=O)[O-]`, the z-score was -0.358. Consider `CCC1(c2ccc(F)cc2)NC(=O)N(CC(=O)N2CCOCC2)C1=O` (stereo not drawn), for which the z-score stood at 0.349. `CCn1c(SCC(=O)c2ccc(F)cc2)nnc1-c1ccoc1C` came in with a z-score of 0.0998. On to `CCOC(=O)C1NN=C(C(=O)c2ccccc2)C1c1ccccc1` (stereo not drawn), for which the z-score was -0.653. The value for `Cc1ccc(/C=N/NC(=O)C(NC(=O)c2ccccc2)c2n[nH]c(=O)c3ccccc23)cc1` (stereo not drawn) was -0.13; that for `CC(=O)OCc1c(C(F)(F)F)nn(C)c1Oc1cccc(C(F)(F)F)c1` was -0.142; that for `CCCCn1c(=O)n(CC(=O)Nc2c(CC)cccc2CC)c(=O)c2c1nc(CO)n2CCC` was -0.584.

Compound `COc1ccc(S(=O)(=O)N(C)CC(=O)N2CCC(C(N)=O)CC2)cc1` came in with a z-score of 0.0352. In the case of `O=C(Nc1cccc(-c2cnc3ccccc3n2)c1)c1ccc(Cl)cc1`, the z-score was -0.669.

`CC1CCCN(c2nc3c(c(=O)n(C)c(=O)n3C)n2CCSc2nc3ccccc3o2)C1` (stereo not drawn) came in with a z-score of -1.37. The same measure for `C=C(C)CNC(=S)NNC(=O)c1ccco1`: -0.224; for `CCOC(=O)N1CCC(NS(=O)(=O)c2ccc3c(c2)oc(=O)n3C)CC1`: 0.489. With `CS(=O)(=O)N1CCc2cc(-c3csc(NC(=O)Cc4ccccc4)n3)ccc21`, the z-score is -0.204. Take `COc1ccccc1N1CCN(C(=O)c2cc3c(=O)n(C)c4ccccc4c3n2C)CC1`: the z-score was -1.66. `COc1ccccc1N(CC(=O)Nc1c(C)cccc1C)S(C)(=O)=O` displayed a z-score of 0.145. With `CCN(CC)S(=O)(=O)c1cccc(C(=O)NCC(=O)OCC(=O)NCc2ccccc2)c1`, the z-score was -1.17. On to `O=C(NCCc1nc2ccccc2[nH]1)c1cc([N+](=O)[O-])cc([N+](=O)[O-])c1`, for which the z-score was -0.332. In turn, `Nc1cc(N2CCCCC2)c(Cl)cc1[N+](=O)[O-]` had a z-score of -0.394. Compound `O=C(CSc1nnnn1-c1ccccc1)Nc1ccc(Cl)cn1` gave a z-score of 1.07. `CCOC(=O)c1sc(=S)n(-c2ccccc2)c1N` came in with a z-score of -0.000963. The same measure for `CCOC(=O)C1CCCN(c2c(NCC3CCCO3)c(=O)c2=O)C1` (stereo not drawn): -0.374. `NS(=O)(=O)c1ccc(CCNC2CC(=O)N(Cc3ccccc3)C2=O)cc1` (stereo not drawn) came in with a z-score of -1.4. Regarding `CCN1CCN(c2ccc([N+](=O)[O-])cc2C(=O)c2ccc(Cl)cc2)CC1`, the z-score worked out at 0.0106. Turning to `Cc1cccc(NC(=O)Cn2cnc3c(oc4nc5c(cc43)COC(C)(C)C5)c2=O)c1`, the z-score was -0.0825. Consider `Cc1snc(S(=O)(=O)/C(C#N)=N/Nc2cccc(C(F)(F)F)c2)c1C#N`, for which the z-score is -0.268. The value for `CCOC(=O)c1cc2c(C)nn(-c3ccccc3)c2s1` was -0.0733; that for `COc1ccc(NC(=O)CSc2nnc(-c3cccs3)n2Cc2ccco2)cc1OC` was -0.682. Take `CCCCC(=O)Nc1ccc(C(=O)NN2C(=O)c3ccccc3C2=O)cc1`: the z-score is -0.164. On to `N#Cc1ccccc1Sc1ccccc1N`, for which the z-score was -0.17.

The compound `CCC(C)(C)n1nnnc1CN(Cc1cc2cc(OC)c(OC)cc2[nH]c1=O)C1CCCC1` yielded a z-score of -1.45. Consider `COc1ccc(-c2nc(N)n(C(=O)c3ccc(C)cc3)n2)cc1`, for which the z-score turned out to be 0.106. `CCOCCCNC(=O)NC12CC3CC(CC(C3)C1)C2` came in with a z-score of 0.179. Compound `O=C(c1ccccc1)c1nn(-c2ccc(Cl)cc2)c(=O)cc1C(F)(F)F` showed a z-score of -0.239.

Take `COc1cc(C)nc(Oc2ccc(OCc3ccccc3)nn2)n1`: the z-score is -0.107. The compound `CCOC(=O)CCC(NC(=O)CCCCCCCC(=O)NC(CCC(=O)OCC)C(=O)OCC)C(=O)OCC` (stereo not drawn) yielded a z-score of -0.356. The compound `O=C(CSc1nnc(-c2ccco2)n1Cc1ccco1)NCc1ccccc1` yielded a z-score of -0.817. On to `CCn1c(CNC(=O)c2cccs2)nnc1SCC(=O)NCCc1ccccc1`, for which the z-score was -0.143.

Regarding `CCN1CCc2c(C#N)c(N3CCCCC3)nc(N3CCOCC3)c2C1`, the z-score is -0.819. Compound `CC(C)c1nc(Cl)c(C#N)c2c1CCCC2` came in with a z-score of -0.406. As to `c1ccc2c(c1)Sc1ccccc1-n1cnnc1-2`, the z-score was -0.821.

In the case of `CC(C)C(=O)Nc1cc(C(F)(F)F)ccc1N1CCOCC1`, the z-score was -0.651. With `Cc1ccc(-c2nnc(Nc3ccc4c(c3)OCO4)c3ccccc23)cc1S(N)(=O)=O`, the z-score was -0.547. Consider `CCc1ccc(NC(=O)C(C)OC(=O)c2ccc(N3CCCC3)c([N+](=O)[O-])c2)cc1` (stereo not drawn), for which the z-score is -0.0246. The same measure for `CC(C)Oc1ccc(C(=O)NC(C)(C)CO)cc1`: 0.163; for `CCC(C)NC(=O)Cn1c(=O)n(CCCC(=O)NCc2ccccc2Cl)c(=O)c2ccccc21` (stereo not drawn): 0.357.

For `c1ccc(-n2ncc3c2ncn2cnnc32)cc1`, the z-score was 0.0868. Compound `N#Cc1c(N)n(CCOC(=O)c2ccc(Cl)cc2)c2nc3ccccc3nc12` displayed a z-score of 0.48. `Cc1cc(NC(=O)c2ccc3nc(-c4ccccc4)c(-c4ccccc4)nc3c2)no1` yielded a z-score of 0.511.

`CCOC(=O)c1c(C)n(CC)c2ccc(OC(=O)c3ccc([N+](=O)[O-])cc3)cc12` showed a z-score of -0.0971. For `Cc1ccc(-n2c3c(c(=O)[nH]c2=O)C(C(F)(F)F)(C(F)(F)F)NC(=O)N3)cc1`, the z-score was determined as 0.799. For the compound `FC(F)(F)c1cccc(NC(=S)NNC(=S)NCc2ccccc2)c1`, the z-score is -0.388.

The compound `CC1(C)OC(=O)C(=NNc2ccc(O)cc2)C(=O)O1` yielded a z-score of -0.129. With `Cc1cccc(-n2cc(-c3ccccc3)c3c(=O)[nH]cnc32)c1`, the z-score was -0.301. The value for `COc1cccc(NC(=O)CN2CCN(S(=O)(=O)c3ccc(C(C)C)cc3)CC2)c1` was -0.697; that for `Cc1cc(C)c(C(=O)C2OC(=O)C(C)(C)C(=O)C2(C)C)c(C)c1` (stereo not drawn) was 0.0247. `COc1ccc(/C=N/NC(=O)c2ccoc2C)cc1O` yielded a z-score of -0.231. In turn, `Cc1ccc2oc(C(=O)NCc3ccc4c(c3)OCO4)c(C)c2c1` returned a z-score of -0.338. For the compound `CCCC(C(=O)NC1CCCC1)N(CCCN1CCOCC1)C(=O)c1snc(C(N)=O)c1N` (stereo not drawn), the z-score was -0.289. The compound `CCc1nc2ccccc2c(C(=O)OCC(=O)NCc2ccco2)c1C` returned a z-score of -1.63. Compound `Cc1cc2c(ncn2C)c(NS(=O)(=O)c2ccccc2Cl)c1C` showed a z-score of -0.0979. The same measure for `Cc1cccc(CN2CCCC(C(=O)N3CCc4ccccc4C3)C2)c1` (stereo not drawn): -0.0704; for `Cc1ccc2nc(-c3cccc(NS(C)(=O)=O)c3)cc(-c3ccccc3)c2c1`: 0.0171; for `CCOc1ccc(NC(=O)c2cnsn2)cc1`: -0.149.

The compound `NC(=O)C1(NC(=O)[C@@H]2CC3(CC(c4cccc(NC(=O)c5cc([N+](=O)[O-])cc([N+](=O)[O-])c5)c4)=NO3)CN2C(=O)c2ccccc2)CC1` (stereo partly drawn) came in with a z-score of 1.45.

In the case of `CCOc1cc(Br)c(Br)c(C=Nc2ccc(NC(C)=O)cc2)c1O`, the z-score was found to be 0.0484. `CN1CCN(C(=O)CCNC(=O)Cn2ccc3ccccc3c2=O)CC1` displayed a z-score of 0.0853.

Compound `COC(=O)CNC(=O)C(C)NC(=O)OCc1ccccc1` (stereo not drawn) registered a z-score of -0.415. In turn, `COc1ccc(Cl)cc1C(=O)NCc1cnn(C)c1C` gave a z-score of -0.509. Regarding `COc1ccc(C2CC(=O)C3=C(C2)Nc2ccccc2N(C(C)=O)C3c2ccco2)cc1` (stereo not drawn), the z-score was -0.431. In turn, `O=C(Nc1cccc(-c2cn3ccccc3n2)c1)c1cccc(Cl)c1` came in with a z-score of -0.397. In the case of `COc1ccc(N2CCN(C(=O)c3cc(N4C(=O)C5C6CCC(C6)C5C4=O)ccc3Cl)CC2)cc1` (stereo not drawn), the z-score is -0.324. Compound `CN(C)CCCN(C(=O)CCc1ccccc1)c1nc2ccc(Cl)cc2s1` yielded a z-score of -1.28. `Cc1sc2nc(CN3CCOCC3)nc(N3CCOCC3)c2c1C` came in with a z-score of -0.112. The value for `O=C(Cc1cccs1)N/N=C/C(Br)=C/c1ccccc1` was -0.184; that for `Cc1ccc(Sc2ncccc2C(=O)O)cc1C` was -0.096.

In turn, `COc1ccc2nc(C)cc(SCC(=O)NNC(=O)COc3ccccc3)c2c1` yielded a z-score of -0.135. As for `CC(c1ccc(Br)cc1)N1CC23C=CC(O2)C(C(=O)O)C3C1=O` (stereo not drawn), the z-score is -0.566. The same measure for `O=C(O)c1cnn2c(C(F)F)cc(C3CC3)nc12`: 0.114. For the compound `CCOc1cc(C(=O)NCc2ccncc2)cc(OCC)c1OCC`, the z-score is 1.8. For `O=C(NCCc1ccccc1)C1CCCN(S(=O)(=O)c2cccs2)C1` (stereo not drawn), the z-score came out at 0.045. The compound `Cc1cccc(C)c1NS(=O)(=O)c1ccc2c(c1)C(=O)c1ccccc1C2=O` showed a z-score of -0.146. The compound `Nc1c(C(=O)NCC2CCCO2)c2nc3ccccc3nc2n1-c1ccccc1` (stereo not drawn) showed a z-score of -1.47. In turn, `COc1ccc(NC(=O)c2cc3sccc3n2Cc2ccc(F)cc2)cc1OC` yielded a z-score of 0.448. For `Cc1nc(NCc2ccc3c(c2)OCO3)c2oc3ccccc3c2n1`, the z-score was -0.964. As for `CCS(=O)(=O)n1nc(-c2ccccc2)cc1N`, the z-score was -0.0144. The same measure for `CC1CCN(c2ccc(NC(=O)c3cccnc3)cc2)CC1`: 0.809; for `Cc1nn(C)c(Oc2cccc(Cl)c2)c1C(=O)O`: -0.288. In turn, `COc1cccc(NC(=O)C(=O)N2CCOCC2)c1` returned a z-score of 0.557. For `N#CC1=C(N)c2ccccc2CC12CCCCC2`, the z-score was 0.165. For the compound `O=C(c1cccn2c(=O)c3cc(Cl)ccc3nc12)N1CCOCC1`, the z-score was determined as 0.152.

As for `CCNC(=O)/N=C1/NC(=O)C(C(C)C)O1` (stereo not drawn), the z-score was -0.0624. In turn, `CCCCCCCCS(=O)C1CCS(=O)(=O)C1` (stereo not drawn) yielded a z-score of 0.614.

In turn, `COc1ccc(C(=O)NCc2ccccn2)cc1` showed a z-score of 0.15. `CCOc1ccc(NC(=O)C2CCCN(C(=O)NCc3ccccc3)C2)cc1` (stereo not drawn) gave a z-score of 1.

For `O=C1OCc2cc(NC(=O)C3CCCCC3)ccc21`, the z-score was -0.19. For `O=C(CCc1nc(-c2ccccc2)c(-c2ccccc2)o1)OCc1ccc(Br)cc1`, the z-score was -0.201. In the case of `O=[N+]([O-])c1ccc(Sc2cccc3cccnc23)cc1`, the z-score came out at 0.158.

`Cc1cc(=O)oc(C)c1C(=O)Nc1cccc2nonc12` gave a z-score of 0.794. The compound `Cc1c(NC(=O)CCN2C(=O)c3ccccc3C2=O)c(=O)n(-c2ccccc2)n1C` yielded a z-score of 0.644. `COC(=O)c1ccsc1NC(=O)CN1CCN(c2ccc(F)cc2)CC1` showed a z-score of 0.602. The same measure for `CC(=O)C12C3C4C(C5C1C3C5(Br)C41OCCO1)C21OCCO1` (stereo not drawn): -0.0274.

Turning to `CCCc1cc(-c2nc(N)ncc2-c2ccc3c(c2)OCCCO3)c(O)cc1OC`, the z-score amounted to 0.524.

Regarding `COc1ccc(S(=O)(=O)N2CCCN(S(=O)(=O)c3ccc(OC)c(C)c3)CC2)cc1C`, the z-score was -0.0209. In turn, `Brc1c(CSc2nncn2-c2ccccc2)nc2sccn12` returned a z-score of 0.101. The value for `COc1ccc(C(=O)N/C(=C/c2cccs2)C(=O)NCCCn2ccnc2)cc1OC` was -0.0492; that for `CC1(c2ccccn2)Nc2ccccc2-c2nc3ccccc3n21` (stereo not drawn) was -0.604.

`O=C(CN1C(=O)CCS(=O)(=O)c2ccccc21)Nc1ccc2c(c1)OCCO2` yielded a z-score of 0.219.
